# Measured values reported in patent publication US10226048B2 (priority 2014, dated 2019).
# Assay: Oxidization ability against sodium thiosulfate
# Conditions: acidic solution (pH 2)
smiles,measurement,value
"CC(=O)OO [PAA, Peracetic Acid]",PAA consumed to oxidize STS and its degradation intermediate,less than 50%
